# Results taken from PubChem BioAssay (Tox21).
# The inconclusive results got no clear call from the source; some entries with a clear call stand among them for comparison. For part of these data: Potencies of inconclusive entries are doubtful fits and often do not repeat. Some compounds were tested as several samples or in several runs, with calls that do not always agree. Calls of active or inactive are those of the source. Unless noted, the call rests on the fitted dose curve; in most records, active means well fitted curve in the direction sought with a large enough effect in the repeat runs; inconclusive means weak or mixed curves; inactive means no such curve, though single readings can be large; an effect the other way counts as inactive or inconclusive.
# Tests used:
# [1] = qHTS assay for small molecule agonists of the antioxidant response element (ARE) signaling pathway (AID 743202; active means well fitted activation curve with a large enough effect in the signal ratio in the repeat runs, not every such curve was filed as active; inconclusive means weak or mixed curves, or effect the other way; inactive means no such curve, though single readings can be large or run the other way; the % refers to the signal ratio; further: potency means the concentration at half of the fitted maximal effect); conditions: HepG2 ARE-bla reporter, beta-lactamase FRET, 16 h
# Summary of the method: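 ARE-bla HepG2 cells (beta-lactamase reporter under the antioxidant response element), plated 5 hours, then exposed to compounds 16 hours at 37 C. LiveBLAzer B/G FRET substrate added for 2 hours at room temperature; fluorescence intensity read.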
# [2] = qHTS assay to identify small molecule antagonists of the peroxisome proliferator-activated receptor delta (PPARd) signaling pathway - cell viability counter screen (AID 743213); conditions: PPARd-bla HEK293H viability, CellTiter-Glo luminescence, 17 h; viability change, negative = cytotoxic: at 62 µM (top of the series) unless noted; further: potency means the concentration at half of the fitted maximal effect; nearly all actives have a fitted effect of over 50% in size
# Summary of the method: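 PPARd-bla HEK293H cells (3000/well) got compound plus 300 nM L165041 agonist for 17 h at 37 C. Viability in the same wells came from CellTiter-Glo luminescence after 30 min at room temperature.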
# [3] = qHTS assay to identify small molecule agonists of the endoplasmic reticulum stress response signaling pathway (AID 1159516; active means well fitted activation curve with a large enough effect in the signal ratio in the repeat runs, not every such curve was filed as active; inconclusive means weak or mixed curves, or effect the other way; the % refers to the signal ratio; further: potency means the concentration at half of the fitted maximal effect); conditions: ESRE-bla HeLa, ER stress beta-lactamase reporter, 5 h; activation: at 61 µM (top of the series) unless noted
# Summary of the method: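 ER stress element reporter (bla) in HeLa. 1,500 cells/well, overnight attachment; 5 hr compound; 2 hr RT substrate; dual-emission fluorescence.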
# [4] = qHTS assay for small molecule agonists of the antioxidant response element (ARE) signaling pathway - cell viability counter screen (AID 743203; calls by dose curve; further: nearly all actives have a fitted effect of over 55% in size; further: potency means the concentration at half of the fitted maximal effect)
# Summary of the method: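 Cells (ARE-bla HepG2, 2,000/well) receive DMSO-dissolved compounds after a 5 hrs rest. Plates incubate 16 hrs at 37C/5% CO2. CellTiter-Glo luminescence is then recorded after 30 min at room temperature.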
# [5] = molecular target: Vitamin D3 receptor (Homo sapiens) (UniProt P11473); assay: qHTS assay to identify small molecule agonists of the vitamin D receptor (VDR) signaling pathway (AID 743222; calls by dose curve; further: on the % scale 0 is the no-effect control and ±100 the full control effect); conditions: HEK293T VDR-UAS-bla, beta-lactamase FRET ratio, 16 h; activation: at 63.5 µM (top of the series) unless noted
# Summary of the method: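 Agonist activity measured in VDR-bla reporter cells. Exposure 16 h, 37C, 5% CO2; detection by B/G FRET substrate, 2 h RT.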
# [6] = qHTS assay to identify small molecule antagonists of the vitamin D receptor (VDR) signaling pathway - cell viability counter screen (AID 743225); conditions: VDR-bla HEK293T viability, CellTiter-Glo luminescence, 16 h; viability change, negative = cytotoxic: at 61 µM (top of the series) unless noted; further: potency means the concentration at half of the fitted maximal effect; nearly all actives have a fitted effect of over 50% in size
# Summary of the method: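 In this counter screen, VDR-bla HEK 293T cells receive test compound plus 3 nM final calcitriol for 16 h at 37C. Room-temperature steps of 2 h with the beta-lactamase substrate, then 30 min with CellTiter-Glo, precede the luminescence read.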
# [7] = qHTS assay for small molecule activators of the heat shock response signaling pathway - cell viability counter screen (AID 743209); conditions: HSE-bla HeLa viability, CellTiter-Glo luminescence, 5 h; activity change, negative = cytotoxicity: at 62.6 µM (top of the series) unless noted; further: nearly all actives have a fitted effect of over 50% in size; further: potency means the concentration at half of the fitted maximal effect
# Summary of the method: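 Quantitative HTS format, Tox21 10K library. HeLa cells carrying an HSE-driven beta-lactamase reporter were treated 5 h at 37 C, then assessed for viability by CellTiter-Glo luminescence.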
# [8] = qHTS assay to identify small molecule agonists of the peroxisome proliferator-activated receptor delta (PPARd) signaling pathway - cell viability counter screen (AID 743211); conditions: PPARd-bla HEK293H viability, CellTiter-Glo luminescence, 17 h; activity change, negative = cytotoxicity: at 62.6 µM (top of the series) unless noted; further: nearly all actives have a fitted effect of over 55% in size; further: potency means the concentration at half of the fitted maximal effect
# Summary of the method: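 Following 5 h plating at 37 C and 5% CO2, PPARd UAS-bla HEK293H cells took up test compounds for 17 h. Viability was quantified by luminescence 30 min after CellTiter-Glo addition at room temperature.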
# [9] = qHTS assay to identify small molecule agonists of the farnesoid-X-receptor (FXR) signaling pathway - cell viability counter screen (AID 743218); conditions: FXR-bla HEK293T viability, CellTiter-Glo luminescence, 16 h; viability change, negative = cytotoxic: at 62.6 µM (top of the series) unless noted; further: nearly all actives have a fitted effect of over 45% in size; further: potency means the concentration at half of the fitted maximal effect
# Summary of the method: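 In GeneBLAzer FXR-UAS-bla HEK 293T cells, compounds act for 16 h at 37 C. Cell viability is then scored in the reporter wells by CellTiter-Glo, 30 min at RT, luminescence.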
# [10] = molecular target: Peroxisome proliferator-activated receptor delta (Homo sapiens) (UniProt Q03181); assay: qHTS assay to identify small molecule antagonists of the peroxisome proliferator-activated receptor delta (PPARd) signaling pathway (AID 743215; active means well fitted inhibition curve with a large enough effect in the signal ratio in the repeat runs, not every such curve was filed as active; inconclusive means weak or mixed curves, or effect the other way; inactive means no such curve, though single readings can be large or run the other way; the % refers to the signal ratio;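 further: cells stimulated with agonist L165041 at 300 nM final during compound exposure; on the % scale 0 is the no-effect control and ±100 the full control effect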); conditions: HEK293H PPARd-UAS-bla, beta-lactamase FRET ratio, antagonist, 17 h; ratio activity, negative = inhibition: at 62 µM (top of the series) unless noted
# Summary of the method: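 Antagonist-mode beta-lactamase reporter screen: HEK293H cells with UAS-bla under PPARd control, stimulated by 300 nM L165041 (final) alongside test compound for 17 h at 37 C, then FRET fluorescence after 2 h substrate incubation.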
# [11] = molecular target: Vitamin D3 receptor (Homo sapiens) (UniProt P11473); assay: qHTS assay to identify small molecule antagonists of the vitamin D receptor (VDR) signaling pathway (AID 743223; active means well fitted inhibition curve with a large enough effect in the signal ratio in the repeat runs, not every such curve was filed as active; inconclusive means weak or mixed curves, or effect the other way; inactive means no such curve, though single readings can be large or run the other way; the % refers to the signal ratio; further: on the % scale 0 is the no-effect control and ±100 the full control effect); conditions: VDR-UAS-bla HEK293T, beta-lactamase FRET ratio, 16 h; activity change, negative = inhibition: at 61 µM (top of the series) unless noted
# Summary of the method: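 Beta-lactamase activity in VDR-bla cells is measured by FRET substrate fluorescence (2 h, room temperature) after cells spend 16 h at 37C with test compound and 3 nM final 1alpha,25-dihydroxyvitamin D3.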
# [12] = qHTS assay for small molecule activators of the heat shock response signaling pathway (AID 743210; active means well fitted activation curve with a large enough effect in the signal ratio in the repeat runs, with a control signal flat, not every such curve was filed as active; inconclusive means weak or mixed curves; the % refers to the signal ratio; further: on the % scale 0 is the no-effect control and ±100 the full control effect); conditions: HeLa HSE-bla reporter, beta-lactamase ratio, 5 h; activation: at 62.6 µM (top of the series)
# Summary of the method: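 HSE-bla HeLa cells (beta-lactamase reporter under heat shock response elements), plated overnight, then exposed to compounds 5 h at 37 C; LiveBLAzer B/G FRET substrate added, 2.5 h at room temperature, fluorescence intensity read.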
# [13] = molecular target: Bile acid receptor (Homo sapiens) (UniProt Q96RI1); assay: qHTS assay to identify small molecule antagonists of the farnesoid-X-receptor (FXR) signaling pathway (AID 743217; active means well fitted inhibition curve with a large enough effect in the signal ratio in the repeat runs, not every such curve was filed as active; inconclusive means weak or mixed curves, or effect the other way; inactive means no such curve, though single readings can be large or run the other way; the % refers to the signal ratio; further: on the % scale 0 is the no-effect control and ±100 the full control effect); conditions: HEK293T FXR-UAS-bla, beta-lactamase ratio, CDCA-stimulated, 16 h
# Summary of the method: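 Beta-lactamase reporter under UAS control in HEK 293T cells; compound exposure 16 h at 37 °C in the presence of chenodeoxycholic acid (50 uM final); signal from B/G FRET substrate after 2 h at room temperature.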
# [14] = activation: at 73.3 µM (top of the series) unless noted
# Tags describe the fitted curve by direction and shape or compound fluorescence and quenching.
# Chain of UniProt P11473 (P11473 whole entry, looked up): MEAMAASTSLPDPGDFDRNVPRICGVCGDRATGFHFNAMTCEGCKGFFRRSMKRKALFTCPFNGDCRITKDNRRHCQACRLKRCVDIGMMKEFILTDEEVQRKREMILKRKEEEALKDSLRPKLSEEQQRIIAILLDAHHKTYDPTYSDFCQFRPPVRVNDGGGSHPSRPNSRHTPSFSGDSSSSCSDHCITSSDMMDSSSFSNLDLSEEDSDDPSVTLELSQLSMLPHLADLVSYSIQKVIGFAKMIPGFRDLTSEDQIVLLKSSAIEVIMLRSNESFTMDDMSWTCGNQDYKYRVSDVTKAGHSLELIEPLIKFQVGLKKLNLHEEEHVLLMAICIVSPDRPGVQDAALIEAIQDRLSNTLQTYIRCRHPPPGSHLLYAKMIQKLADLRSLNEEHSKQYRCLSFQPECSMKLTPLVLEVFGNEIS
# Chain of UniProt Q96RI1 (Q96RI1 whole entry, looked up): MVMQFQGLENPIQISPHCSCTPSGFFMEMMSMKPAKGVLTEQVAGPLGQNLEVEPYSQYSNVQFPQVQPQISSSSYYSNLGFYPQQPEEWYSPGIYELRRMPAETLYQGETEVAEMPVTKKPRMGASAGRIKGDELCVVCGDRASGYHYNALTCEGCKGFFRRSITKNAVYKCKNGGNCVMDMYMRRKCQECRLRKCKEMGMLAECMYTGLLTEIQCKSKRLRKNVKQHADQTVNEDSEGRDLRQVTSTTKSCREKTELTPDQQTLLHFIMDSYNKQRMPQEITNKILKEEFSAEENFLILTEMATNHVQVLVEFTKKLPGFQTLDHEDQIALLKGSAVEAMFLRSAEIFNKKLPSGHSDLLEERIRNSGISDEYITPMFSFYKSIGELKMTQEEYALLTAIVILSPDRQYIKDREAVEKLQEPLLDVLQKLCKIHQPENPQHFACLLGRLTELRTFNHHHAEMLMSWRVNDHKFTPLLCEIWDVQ
# Chain of UniProt Q03181 (Q03181 whole entry, looked up): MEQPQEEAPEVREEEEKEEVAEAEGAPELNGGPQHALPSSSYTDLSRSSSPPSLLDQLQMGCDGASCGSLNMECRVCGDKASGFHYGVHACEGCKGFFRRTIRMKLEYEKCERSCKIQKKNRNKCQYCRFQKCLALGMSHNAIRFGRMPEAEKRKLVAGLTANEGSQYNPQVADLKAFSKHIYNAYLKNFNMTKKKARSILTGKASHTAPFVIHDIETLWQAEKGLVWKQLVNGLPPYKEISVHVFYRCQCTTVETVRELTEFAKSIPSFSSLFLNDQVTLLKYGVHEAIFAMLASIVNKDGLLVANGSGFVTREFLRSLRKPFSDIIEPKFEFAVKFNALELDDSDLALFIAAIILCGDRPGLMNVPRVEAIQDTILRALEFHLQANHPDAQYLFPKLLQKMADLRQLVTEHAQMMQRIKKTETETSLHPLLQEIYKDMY
smiles,measurement,setting,value
CC(=O)[O-].CC(=O)[O-].O.O.O.[Pb+2],Potency,[1]; [14],active: 2.73 µM
same,Potency,[2],"inconclusive: 1.1 µM [cytotoxic, single point]"
same,Potency,[3],active: 0.0776 µM
CC(O)(CS(=O)(=O)c1ccc(F)cc1)C(=O)Nc1ccc(C#N)c(C(F)(F)F)c1 (centres undefined),Potency,[1]; [14],"inconclusive: 20.1 µM [rising, partial curve, poor fit]"
same,Potency,[4],"inconclusive: 28.3 µM [cytotoxic, partial curve, poor fit]"
same,Potency,[2],"inconclusive: 22.7 µM [cytotoxic, partial curve, poor fit]"
same,Potency,[5],inactive
same,Potency,[6],inconclusive: 16.1 µM [cytotoxic]
same,Potency,[3],inconclusive: 32.1 µM [activator]
[Cl-].[Cl-].[Sn+2],activation,[1]; [14],inconclusive: -0.268%
same,Potency,[4],inactive
same,Potency,[3],inactive
Cc1cc(C)cc(C)c1,activation,[1]; [14],inconclusive: -8.16% [at 94.8 µM]
same,activation,[1]; at 73.3 µM (top of the series),inactive: -8.97%
same,Potency,[7],"inconclusive: 21.6 µM [cytotoxic, full curve]"
same,Potency,[8],inactive
same,Potency,[9],inactive
same,Potency,[5],inactive
same,Potency,[3],"inconclusive: 2.16 µM [falling, single point]"
COC(N)=O,activation,[1]; [14],inconclusive: -1.47%
same,activation,[3],inconclusive: 5.97%
CC(Cc1ccccc1)NCCn1cnc2c1c(=O)n(C)c(=O)n2C (centres undefined),Potency,[1]; [14],inactive
same,Potency,[7],inactive
same,"ratio activity, negative = inhibition",[10],inconclusive: -2.15% [at 80.4 µM]
same,Potency,[11],inactive
same,Potency,[3],inactive
ClCc1ccccn1,Potency,[1]; [14],"inconclusive: 75.5 µM [rising, partial curve, poor fit]"
same,Potency,[3],inactive
O=NN1CCCCCCC1,Potency,[1]; [14],inactive
same,Potency,[7],inactive
same,Potency,[12],inactive
same,Potency,[8],"inconclusive: 21.9 µM [cytotoxic, partial curve, poor fit]"
same,Potency,"[13]; activity change, negative = inhibition: at 62.6 µM (top of the series) unless noted",inactive
same,Potency,[9],"inconclusive: 54.9 µM [rising, single point]"
same,Potency,[3],inactive
O=C(O)CCCc1ccc(N(CCCl)CCCl)cc1,"activity change, negative = inhibition",[13]; at 62.6 µM (top of the series),inactive: -10%
same,"activity change, negative = inhibition",[13]; at 81.1 µM (top of the series),inactive: -10.9%
CC(C)(C)OOC(C)(C)CCC(C)(C)OOC(C)(C)C,"activity change, negative = inhibition",[11],inconclusive: -0.419%
same,Potency,[3],inactive
